# Screen size: about 310,000 compounds; about 14,000 (4.5%) showed an effect of 50% or more. The effect is printed as a negative number. The list shows a part of the results.
# Biological target: human ether-à-go-go-related gene (hERG) potassium channel (human, UniProt Q12809)
# Assay: primary screen, population patch clamp on CHO cells stably expressing hERG
# 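Further: peak tail current of the secondary pulse compared with the same well before compound.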
# Chain of human ether-à-go-go-related gene (hERG) potassium channel (Q12809 whole entry, looked up): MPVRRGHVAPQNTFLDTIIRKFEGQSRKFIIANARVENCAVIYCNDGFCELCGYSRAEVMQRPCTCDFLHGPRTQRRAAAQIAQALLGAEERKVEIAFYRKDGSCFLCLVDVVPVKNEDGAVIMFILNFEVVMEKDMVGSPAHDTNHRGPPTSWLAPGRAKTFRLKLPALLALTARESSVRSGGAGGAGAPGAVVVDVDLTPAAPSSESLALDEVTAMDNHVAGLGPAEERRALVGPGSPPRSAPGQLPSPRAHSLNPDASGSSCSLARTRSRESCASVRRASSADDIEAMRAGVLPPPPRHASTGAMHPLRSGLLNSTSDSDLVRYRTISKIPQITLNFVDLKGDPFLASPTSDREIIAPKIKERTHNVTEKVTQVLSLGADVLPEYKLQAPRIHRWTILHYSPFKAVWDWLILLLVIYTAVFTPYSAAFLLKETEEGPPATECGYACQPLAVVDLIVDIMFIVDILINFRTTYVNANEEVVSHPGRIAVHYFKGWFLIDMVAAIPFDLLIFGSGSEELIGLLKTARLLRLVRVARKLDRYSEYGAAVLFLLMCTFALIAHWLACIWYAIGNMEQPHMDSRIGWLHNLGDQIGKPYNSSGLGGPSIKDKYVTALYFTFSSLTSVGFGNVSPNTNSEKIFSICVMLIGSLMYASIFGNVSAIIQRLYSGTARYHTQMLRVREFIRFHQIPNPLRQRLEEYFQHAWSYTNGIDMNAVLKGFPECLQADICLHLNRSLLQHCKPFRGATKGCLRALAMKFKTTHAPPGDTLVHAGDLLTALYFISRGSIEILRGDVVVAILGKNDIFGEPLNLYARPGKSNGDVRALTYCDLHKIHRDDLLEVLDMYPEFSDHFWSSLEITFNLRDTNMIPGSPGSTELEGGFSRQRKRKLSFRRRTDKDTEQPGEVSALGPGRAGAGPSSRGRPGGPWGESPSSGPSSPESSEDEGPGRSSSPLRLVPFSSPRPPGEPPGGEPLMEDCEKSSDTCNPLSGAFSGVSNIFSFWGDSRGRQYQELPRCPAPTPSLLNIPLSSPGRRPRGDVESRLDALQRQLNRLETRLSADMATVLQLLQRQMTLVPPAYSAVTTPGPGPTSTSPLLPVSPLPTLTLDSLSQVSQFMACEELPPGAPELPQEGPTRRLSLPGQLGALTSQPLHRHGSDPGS
row,Compound,"hERG current change (%, negative = inhibition) at 10uM"
1,O=C(c1ccc2oc(CCCc3ccccc3)nc2c1)N1CCCCC1CO (centres unmarked),1.53%
2,CC(C)NS(=O)(=O)c1ccc(OCC(=O)Nc2ccc(F)cc2F)cc1,-4.25%
3,O=C1C2C3C=CC(C3)C2C(=O)N1Cc1ccccc1 (centres unmarked),0.693%
4,COc1ccc(C(=O)C(Cc2cc(C(C)=O)ccc2OC)N2CCCC2)cc1 (centres unmarked),-8.91%
5,CCCn1c(=O)c(C#N)cn(C2CC2)c1=O,15.3%
6,CCN(CC(=O)Nc1ccc(NC(C)=O)cc1)C(=O)c1ccc2ccccc2c1,8.97%
7,COc1ccc(-c2cc(C(=O)NNC(=O)c3csc(N4CCOCC4)n3)c3ccccc3n2)cc1OC,15.5%
8,COc1ccc(CC(=O)OCC(=O)NC(=O)NC(C)C)cc1,2.19%
9,CC(OC(=O)Cc1c[nH]c2ccccc12)C(=O)N(C)c1ccccc1 (centres unmarked),-0.614%
10,Cc1ccccc1NCC(=O)N/N=C\C=C\c1cccc([N+](=O)[O-])c1,-44.4%
11,CCOC(=O)c1ncn2c1CN(C)C(=O)c1cc(F)ccc1-2,8.55%
12,O=C(O)CCN1c2cccc3cccc(c23)S1(=O)=O,7.6%
13,CCC(C)N1C(=S)SC(C)(C)C1N(O)C(=O)NC1CCCCC1 (centres unmarked),9.19%
14,O=C(NC1CCCC1)c1cccc(Cn2cc([N+](=O)[O-])cn2)c1,-32.8%
15,Oc1cccc(/C=N/NC(=S)NCCN2CCOCC2)c1O,20%
16,COC(=O)c1c(C)nn(-c2ccccc2)c1-n1cccc1,5.98%
17,CN(C)C(=O)CNC(=O)C1CCCCC1,3.19%
18,CCOC(=O)c1ccc(NC(=O)CSCc2ccco2)cc1,17.7%
19,CCCCCC(=O)NC(=S)Nc1ccc(Cl)cn1,-15%
20,CCCCn1c(=O)c(CCC(=O)OCC(=O)Nc2ccc(F)c(Cl)c2)nc2ccccc21,0.0727%

row,Compound,"hERG current change (%, negative = inhibition) at 10uM"
1,COc1ccc(Cc2nc(C(=O)Nc3ccccc3)cs2)cc1,0.282%
2,N#C/C(=C\c1cccc(O)c1)C(=O)N1CCCCC1,20.6%
3,COC(=O)c1ccc(NC(=O)C2CCN(S(C)(=O)=O)CC2)cc1,13.4%
4,O=C(CCC(=O)OCC(F)(F)C(F)F)Nc1ccc(F)cc1F,14.9%
5,CCOC(=O)c1ccc(NC(=O)c2cccc3c2C(=O)N(CC2CCCO2)C3)cc1 (centres unmarked),-2.27%
6,COC(=O)C1=C(c2cccc(OCc3ccccc3)c2)C[C@@H]2CC[C@H]1N2C(=O)NCCCc1ccccc1,-6.16%
7,Cc1ccc(-c2cn(-c3ccccc3F)c(=S)[nH]2)cc1,36.6%
8,CCOc1ccc(C(=O)CCC(=O)NC(C)C(=O)OC)cc1 (centres unmarked),1.18%
9,CCOC(=O)Nc1ccc2c(c1)N(CCCN(C)C)c1ccccc1CC2.Cl,-44.8%
10,O=C(CNS(=O)(=O)c1cccs1)NCc1ccc(F)cc1,17.5%
11,CSCCC(NC(=O)c1ccco1)c1nc2ccccc2[nH]1 (centres unmarked),-41.6%
12,CC1CCN(Cc2c(C(=O)N3CCc4ccccc4C3)nc3ccc(Cl)cn23)CC1,-31.7%
13,O=C(CSc1nc2ccccc2c(=O)[nH]1)N1CCCCCC1,10.1%
14,O=C(Cc1cccc2ccccc12)Nc1ccc(-c2cc3ccccc3oc2=O)cc1,-15.4%
15,O=S(=O)(c1ccc(OCC(O)CN2CCCC2)cc1)N1CCOCC1 (centres unmarked),11.2%
16,CCCCCn1nnc2c(=O)oc3ccccc3c21,-9.32%
17,CSC1=NCCN1C(=O)Cc1cccs1,-5.77%
18,Cc1ccc(-c2csc(NC(=O)C3=COCCO3)n2)cc1,-3.61%
19,N#Cc1ccc(S(=O)(=O)NC2CC2)cc1,30.5%
20,COc1ccc(NC(=O)c2cccc(S(=O)(=O)N3CCCCC3)c2)c(OC)c1,-29.9%

row,Compound,"hERG current change (%, negative = inhibition) at 10uM"
1,Cc1ccc(C(=O)n2cnc3ccccc32)cc1C,6.11%
2,CC(=O)Nc1ccc(NC(=O)[C@@H]2CCCC[C@@H]2C(=O)O)cc1,10.2%
3,O=[N+]([O-])c1ccc(-c2nc(-c3ccncc3)no2)cc1,-16%
4,COCCNS(=O)(=O)c1ccc(-c2ccc(C)cc2)cc1,3.72%
5,COC(=O)c1ccccc1NC(=O)c1cc[n+]([O-])cc1,10.9%
6,COc1ccc(CN(C)CC(=O)Nc2ccccc2C(F)(F)F)c(OC)c1.O=C(O)C(=O)O,-0.141%
7,CCOc1cc(-c2nc(C)c(C(C)=O)n2O)ccc1OCC(=O)Nc1ccccc1,-0.49%
8,CCCCCC(=O)Nc1ccc2ccccc2c1,2.5%
9,Cc1ccccc1-c1noc(-c2ccc(O)cc2)n1,-6.18%
10,CCOC(=O)CNC(=O)Cn1cnc2c(oc3ccccc32)c1=O,6.54%
11,COc1cc(C(=O)NNC(=O)c2ccc(F)cc2)ccc1OCC(=O)N1CCOCC1,2.15%
12,CC(C)(O)C#Cc1ccc(C(=O)N2CCCC(CCC(=O)NCc3ccccc3F)C2)cc1 (centres unmarked),3.95%
13,CCOC(=O)CNC1CC(=O)N(c2cccc(Cl)c2)C1=O (centres unmarked),-0.687%
14,O=C(Oc1ccc([N+](=O)[O-])cc1)c1cncc(Br)c1,-9.62%
15,O=C(O)COCC(=O)NCc1csc2ccc(Cl)cc12,13.8%
16,COc1ccc(CNCc2ccncc2)c(OC)c1.Cl,-0.685%
17,CCC1=Nc2cc(C(=O)NCc3ccco3)ccc2Sc2ccccc21,-6.24%
18,CCc1cccc(NC(=O)CCS(=O)(=O)c2ccc3c(c2)NC(=O)CO3)c1,-5.83%
19,COc1ccc(N2CCN(C(=O)CCN3C(=O)C4C5C=CC(C5)C4C3=O)CC2)cc1 (centres unmarked),-0.214%
